Measurements taken from patent publication US20240124614A1.
Residue numbers refer to the chain shown, from its start.

B1: hT4VL.FRv40484 (antibody, human IgG1, kappa)
heavy: EVQLVESGGGLVQPGGSLRLSCAASGYTFTSYVMHWVRQAPGKGLEWVSAINPYNDGNYYADSVKGRFTISRDNSRKTLYLQMNSLRAEDTAVYYCARGAYKRGYAMDYWGQGTTVTVSSASTKGPSVFPLAPSSKSTSGGTAALGCLVKDYFPEPVTVSWNSGALTSGVHTFPAVLQSSGLYSLSSVVTVPSSSLGTQTYICNVNHKPSNTKVDKKV[human IgG1 Fc not given here]GSGGGSVTGYRLFEEIL
light: DLVMTQSPSSLSASVGDRVTITCKSSQSLFDSRTEKNYLAWYQQKPGKAPKLLIYWASTRESGVPARFSGSGSGTDFTLTISSLEPEDFAVYYCQQYYYHMYTFGQGTKVEIKRTVAAPSVFIFPPSDEQLKSGTASVVCLLNNFYPREAKVQWKVDNALQSGNSQESVTEQDSKDSTYSLSSTLTLSKADYEKHKVYACEVTHQGLSSPVTKSFNRGEC
B2: hT4VL.FRv40485 (antibody, human IgG1, kappa)
heavy: B1 heavy
light: B1 light with E35S
B3: hT4VL.FRv40486 (antibody, human IgG1, kappa)
heavy: B1 heavy
light: B1 light with D31N, S32D, E35R, Q95H
B4: hT4VL.FRv40487 (antibody, human IgG1, kappa)
heavy: B1 heavy
light: B1 light with E35R, Q95H
B5: hT4VL.FRv40488 (antibody, human IgG1, kappa)
heavy: B1 heavy
light: B1 light with D31N, R33K, E35R, Q95H
B6: hT4VL.FRv40489 (antibody, human IgG1, kappa)
heavy: B1 heavy
light: B1 light with D31N, S32D, E35R, Y97E
B7: hT4VL.FRv40490 (antibody, human IgG1, kappa)
heavy: B1 heavy
light: B1 light with E35R, Y97E
B8: hT4VL.FRv40491 (antibody, human IgG1, kappa)
heavy: B1 heavy
light: B1 light with D31N, R33K, E35R, Y97E
B9: hT4VL.FRv40492 (antibody, human IgG1, kappa)
heavy: B1 heavy
light: B1 light with D31N, E35R, Q95H, H100P
B10: hT4VL.FRv40493 (antibody, human IgG1, kappa)
heavy: B1 heavy
light: B1 light with D31N, E35R, Y97E, H100P
B11: hT4VL.FRv40494 (antibody, human IgG1, kappa)
heavy: B1 heavy
light: B1 light with D31N, E35R, H100P, M101N
B12: hT4VL.FRv40495 (antibody, human IgG1, kappa)
heavy: B1 heavy
light: B1 light with D31N, E35R, H100P, M101D
B13: hT4VL.FRv40496 (antibody, human IgG1, kappa)
heavy: B1 heavy
light: B1 light with D31N, E35R, H100P, M101P
B14: hT4VL.FRv40497 (antibody, human IgG1, kappa)
heavy: B1 heavy
light: B1 light with D31N, E35R, H100E, Y102P
B15: hT4VL.FRv40498 (antibody, human IgG1, kappa)
heavy: B1 heavy
light: B1 light with D31N, E35R, H100E, M101N
B16: hT4VL.FRv40499 (antibody, human IgG1, kappa)
heavy: B1 heavy
light: B1 light with D31N, E35R, H100E, M101D
B17: hT4VL.FRv40500 (antibody, human IgG1, kappa)
heavy: B1 heavy
light: B1 light with D31N, E35R, H100E, M101P
B18: hT4VL.FRv40469 (antibody, human IgG1, kappa)
heavy: B1 heavy
light: B1 light with D31N, S32D, R33K, E35R
B19: hT4VL.FRv40470 (antibody, human IgG1, kappa)
heavy: B1 heavy
light: B1 light with D31N, S32D, R33H, E35R
B20: hT4VL.FRv40471 (antibody, human IgG1, kappa)
heavy: B1 heavy
light: B1 light with D31E, S32D, E35R
B21: hT4VL.FRv40472 (antibody, human IgG1, kappa)
heavy: B1 heavy
light: B1 light with D31N, S32D, T34D, E35R
B22: hT4VL.FRv40473 (antibody, human IgG1, kappa)
heavy: B1 heavy
light: B1 light with D31N, S32D
B23: hT4VL.FRv40474 (antibody, human IgG1, kappa)
heavy: B1 heavy
light: B1 light with D31N, S32D, E35S
B24: hT4VL.FRv40475 (antibody, human IgG1, kappa)
heavy: B1 heavy
light: B1 light with K24N, D31N, S32D, E35R
B25: hT4VL.FRv40476 (antibody, human IgG1, kappa)
heavy: B1 heavy
light: B1 light with R33K, E35R
B26: hT4VL.FRv40477 (antibody, human IgG1, kappa)
heavy: B1 heavy
light: B1 light with D31E, R33K, E35R
B27: hT4VL.FRv40478 (antibody, human IgG1, kappa)
heavy: B1 heavy
light: B1 light with D31N, R33K, T34D, E35R
B28: hT4VL.FRv40479 (antibody, human IgG1, kappa)
heavy: B1 heavy
light: B1 light with D31N, R33K
B29: hT4VL.FRv40541 (antibody, human IgG1, kappa)
heavy: B1 heavy
light: B1 light with L2I, V3Q, D31E, R33K, E35R, Q95H, H100E, M101P
B30: hT4VL.FRv40542 (antibody, human IgG1, kappa)
heavy: B1 heavy
light: B1 light with L2I, V3Q, D31E, R33K, E35R, Q95Y, H100E, M101P
B31: hT4VL.FRv40543 (antibody, human IgG1, kappa)
heavy: B1 heavy
light: B1 light with L2I, V3Q, D31E, R33K, E35R, Y97E, H100E, M101P
B32: hT4VL.FRv40544 (antibody, human IgG1, kappa)
heavy: B1 heavy
light: B1 light with L2I, V3Q, D31E, R33K, E35R, Y97F, H100E, M101P
B33: hT4VL.FRv40545 (antibody, human IgG1, kappa)
heavy: B1 heavy
light: B1 light with L2I, V3Q, D31E, R33S, E35R, Q95H, H100E, M101P
B34: hT4VL.FRv40546 (antibody, human IgG1, kappa)
heavy: B1 heavy
light: B1 light with L2I, V3Q, D31E, R33S, E35R, Q95Y, H100E, M101P
B35: hT4VL.FRv40547 (antibody, human IgG1, kappa)
heavy: B1 heavy
light: B1 light with L2I, V3Q, D31E, R33S, E35R, Y97F, H100E, M101P

molecular target: ECM (extracellular matrix); assay: ECL plate assay on coated ECM (Matrigel)

Row | Binder | ECM binding vs Control Ab (pH 5.8) (fold vs Control Ab) | ECM binding vs Control Ab (pH 7.4) (fold vs Control Ab)
1 | B1 | 10.4 | 1.07
2 | B2 | 13.1 | 2.36
3 | B3 | 46.3 | 6
4 | B4 | 31.8 | 6.94
5 | B5 | 74.5 | 9.74
6 | B6 | 53.8 | 3.92
7 | B7 | 33.3 | 4.37
8 | B8 | 69.5 | 6.17
9 | B9 | 65 | 12.4
10 | B10 | 66.1 | 11.2
11 | B11 | 59.6 | 10.4
12 | B12 | 47.5 | 12.9
13 | B13 | 62.8 | 10.8
14 | B14 | 37.5 | 8.21
15 | B15 | 44 | 7.71
16 | B16 | 41.9 | 6.9
17 | B17 | 60 | 7.03
18 | B18 | 33.9 | 3.34
19 | B19 | 49.6 | 2.85
20 | B20 | 18.2 | 2.5
21 | B21 | 10 | 1.97
22 | B22 | 15.1 | 1.46
23 | B23 | 25.9 | 2.69
24 | B24 | 49 | 3.84
25 | B25 | 17.9 | 2.95
26 | B26 | 30.4 | 3.73
27 | B27 | 18.6 | 3.41
28 | B28 | 18.4 | 1.9

molecular target: ECM (extracellular matrix); assay: ECL plate assay on coated ECM (Matrigel), antibody 3 ug/mL, pH 5.8

Row | Binder | ECM binding vs Control Ab (pH 5.8) (ratio vs Control Ab)
29 | B29 | 20.5
30 | B30 | 38.5
31 | B31 | 32
32 | B32 | 33
33 | B33 | 8.6
34 | B34 | 22.3
35 | B35 | 21.1

molecular target: ECM (extracellular matrix); assay: ECL plate assay on coated ECM (Matrigel), antibody 3 ug/mL, pH 7.4

Row | Binder | ECM binding vs Control Ab (pH 7.4) (ratio vs Control Ab)
36 | B30 | 2.64
37 | B31 | 2.49
38 | B32 | 2.86
39 | B33 | 1.28
40 | B34 | 1.54
41 | B35 | 1.51
